Experimental findings from a collection of fitness landscapes (doi:10.1016/j.celrep.2020.107928) are described below.

The chains are these.
B1: Caulobacter ParB omega fusion; a variant is named by its letters at X, in order, B8GW30 (parent)
chain: MESVVVGEPGMSEGRRGLGRGLSALLGEVDAAPAQAPGEQLGGSREAPIEILQRNPDQPRRTFREEDLEDLSNSIREKGVLQPILVRPSPDTAGEYQIVAGERAWRAAQRAGLKTVPIMVRELDDLAVLEIGIIENVQRADLNVLEEALSYKVLMEKFERTQENIAQTIGKSXSHVANXMRLLXLPDEVQSYLVSGELTAXHARAIAAAADPVALAKQIIEGGLSVRETEALARKAPNLSAGKSKGGRPPRVKDTDTQALESDLSSVLGLDVSIDHRGSTGTLTITYATLEQLDDLCNRLTRGI

Over roughly 81,000 sequences, “one-hybrid fitness for binding NBS DNA” has its median near -0.1; the highest 2% begin near 0.36. This is one part of the list.

Variants of B1 are the subject of the test. In words: one-hybrid fitness for binding NBS DNA (the Noc-binding site; scaled: cognate 1, non-cognate 0); higher = stronger binding. The conditions noted are these: with NBS DNA site. In a few lines: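 Caulobacter ParB libraries with four specificity codons randomised were screened by bacterial one-hybrid selection in the E. coli USO strain, using a HIS3 reporter whose site lies 19 bp from the promoter. Selection ran for 48 hours at 37°C on M9 lacking histidine, with 0.1 mM IPTG and 5 mM 3-AT. Plasmids were Illumina-sequenced before and after selection, three replicate libraries were pooled, and variants with under 10 reads were dropped. Fitness is the log change in each variant's read ratio to wild type, rescaled against the cognate and non-cognate sites.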
Consider QSNS, for which the “one-hybrid fitness for binding NBS DNA” value was 0.421.
Consider LHRY, for which the “one-hybrid fitness for binding NBS DNA” value is ≤ 0.2.
With WRRS, the “one-hybrid fitness for binding NBS DNA” value is ≤ 0.2.
Then KKSN, with ≤ 0.2; and QDDS, with ≤ 0.2.
For DKAT, the “one-hybrid fitness for binding NBS DNA” value was ≤ 0.2.
Regarding KVGK, the “one-hybrid fitness for binding NBS DNA” value was ≤ 0.2.
Then QNRA, with ≤ 0.2; and PTMI, with ≤ 0.2; and CTRM, with ≤ 0.2.
In the case of PCMM, the “one-hybrid fitness for binding NBS DNA” value was ≤ 0.2.
Take AKLE: the “one-hybrid fitness for binding NBS DNA” value is ≤ 0.2.
Consider RCMD, for which the “one-hybrid fitness for binding NBS DNA” value was ≤ 0.2.
Regarding LILA, the “one-hybrid fitness for binding NBS DNA” value was ≤ 0.2.
With FERR, the “one-hybrid fitness for binding NBS DNA” value was ≤ 0.2.
Turning to PCLN, the “one-hybrid fitness for binding NBS DNA” value was ≤ 0.2.
For GAQT, the “one-hybrid fitness for binding NBS DNA” value was ≤ 0.2.
For the variant EATY, the “one-hybrid fitness for binding NBS DNA” value is ≤ 0.2.
Consider NTRR, for which the “one-hybrid fitness for binding NBS DNA” value was determined as 0.235.
Take HRCA: the “one-hybrid fitness for binding NBS DNA” value was ≤ 0.2.
Take QWHL: the “one-hybrid fitness for binding NBS DNA” value was ≤ 0.2.
For the variant RGIN, the “one-hybrid fitness for binding NBS DNA” value is ≤ 0.2.
On to PFYR, for which the “one-hybrid fitness for binding NBS DNA” value is ≤ 0.2.
Turning to QHLH, the “one-hybrid fitness for binding NBS DNA” value is ≤ 0.2.
For the variant ARMD, the “one-hybrid fitness for binding NBS DNA” value is ≤ 0.2.
Turning to MLGT, the “one-hybrid fitness for binding NBS DNA” value was ≤ 0.2.
For the variant LHSW, the “one-hybrid fitness for binding NBS DNA” value was ≤ 0.2.
For CHPV, the “one-hybrid fitness for binding NBS DNA” value is ≤ 0.2.
For the variant ERRE, the “one-hybrid fitness for binding NBS DNA” value was ≤ 0.2.
Then SFFN, with ≤ 0.2; and RISQ, with ≤ 0.2; and LCKS, with ≤ 0.2.
In the case of RYWG, the “one-hybrid fitness for binding NBS DNA” value is ≤ 0.2.
Consider RCRR, for which the “one-hybrid fitness for binding NBS DNA” value turned out to be 0.77.
Take WQKE: the “one-hybrid fitness for binding NBS DNA” value was ≤ 0.2.
On to LGRL, for which the “one-hybrid fitness for binding NBS DNA” value is ≤ 0.2.
Take LDDF: the “one-hybrid fitness for binding NBS DNA” value was ≤ 0.2.
On to AALC, for which the “one-hybrid fitness for binding NBS DNA” value was ≤ 0.2.
Then GTRP, with ≤ 0.2.
Take TWAD: the “one-hybrid fitness for binding NBS DNA” value is ≤ 0.2.
As to ITIS, the “one-hybrid fitness for binding NBS DNA” value was ≤ 0.2.
Turning to QVDR, the “one-hybrid fitness for binding NBS DNA” value was ≤ 0.2.
On to IPCW, for which the “one-hybrid fitness for binding NBS DNA” value is ≤ 0.2.
On to LERA, for which the “one-hybrid fitness for binding NBS DNA” value was ≤ 0.2.
On to IRVN, for which the “one-hybrid fitness for binding NBS DNA” value was ≤ 0.2.
Then KHGC, with ≤ 0.2.
For the variant LLMF, the “one-hybrid fitness for binding NBS DNA” value was ≤ 0.2.
Turning to SFES, the “one-hybrid fitness for binding NBS DNA” value is ≤ 0.2.
Consider VHYI, for which the “one-hybrid fitness for binding NBS DNA” value is ≤ 0.2.
With NLQQ, the “one-hybrid fitness for binding NBS DNA” value was ≤ 0.2.
On to HRRC, for which the “one-hybrid fitness for binding NBS DNA” value is ≤ 0.2.
Then CPYG, with ≤ 0.2.
Then AAYV, with ≤ 0.2; and TKVG, with ≤ 0.2.
Consider QLCA, for which the “one-hybrid fitness for binding NBS DNA” value is ≤ 0.2.
Then HLWT, with ≤ 0.2; and STIK, with ≤ 0.2.
For the variant SDKI, the “one-hybrid fitness for binding NBS DNA” value was ≤ 0.2.
With AVLH, the “one-hybrid fitness for binding NBS DNA” value is ≤ 0.2.
Regarding FLLT, the “one-hybrid fitness for binding NBS DNA” value is ≤ 0.2.
With WQCS, the “one-hybrid fitness for binding NBS DNA” value is ≤ 0.2.
Then HFFC, with ≤ 0.2; and TPSE, with ≤ 0.2.
As to GYSS, the “one-hybrid fitness for binding NBS DNA” value is ≤ 0.2.
Turning to VQKD, the “one-hybrid fitness for binding NBS DNA” value is ≤ 0.2.
Take KLTC: the “one-hybrid fitness for binding NBS DNA” value was ≤ 0.2.
Turning to EDSN, the “one-hybrid fitness for binding NBS DNA” value was ≤ 0.2.
Then QLYA, with ≤ 0.2; and SEQA, with ≤ 0.2.
Then AHHC, with ≤ 0.2; and VPTF, with ≤ 0.2.
Then DVLT, with ≤ 0.2; and WSLS, with ≤ 0.2; and KGSV, with ≤ 0.2.
On to RDDF, for which the “one-hybrid fitness for binding NBS DNA” value is ≤ 0.2.
For KMTS, the “one-hybrid fitness for binding NBS DNA” value was ≤ 0.2.
On to DTNY, for which the “one-hybrid fitness for binding NBS DNA” value is ≤ 0.2.
As to HPIG, the “one-hybrid fitness for binding NBS DNA” value was ≤ 0.2.
Take WADR: the “one-hybrid fitness for binding NBS DNA” value is ≤ 0.2.
As for MILC, the “one-hybrid fitness for binding NBS DNA” value was ≤ 0.2.
Then LSNH, with ≤ 0.2; and KMQL, with ≤ 0.2; and SWWY, with ≤ 0.2.
With WSKK, the “one-hybrid fitness for binding NBS DNA” value was ≤ 0.2.
As for SCTW, the “one-hybrid fitness for binding NBS DNA” value is ≤ 0.2.
Consider TRMV, for which the “one-hybrid fitness for binding NBS DNA” value is ≤ 0.2.
For the variant VHTS, the “one-hybrid fitness for binding NBS DNA” value is ≤ 0.2.
As to QVAT, the “one-hybrid fitness for binding NBS DNA” value stood at 0.326.
For the variant RALT, the “one-hybrid fitness for binding NBS DNA” value is 0.286.
As for ARPE, the “one-hybrid fitness for binding NBS DNA” value was ≤ 0.2.
Then ENIE, with ≤ 0.2; and SIAR, with ≤ 0.2.
RFPQ: the “one-hybrid fitness for binding NBS DNA” value was ≤ 0.2.
For the variant LYRS, the “one-hybrid fitness for binding NBS DNA” value was ≤ 0.2.
Take RLQD: the “one-hybrid fitness for binding NBS DNA” value is ≤ 0.2.
Take DYSV: the “one-hybrid fitness for binding NBS DNA” value was ≤ 0.2.
As to HNQM, the “one-hybrid fitness for binding NBS DNA” value was ≤ 0.2.
